In paper PMC4336329 (PLoS ONE, 2015):
The whole screen tested about 310,000 compounds, of which about 14,000 (4.5%) showed an effect of 50% or more. The effect is printed as a negative number. This is one part of the list.

Target: human ether-à-go-go-related gene (hERG) potassium channel (human, UniProt Q12809)
Test: primary screen, population patch clamp on CHO cells stably expressing hERG
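Further: peak tail current of the secondary pulse compared with the same well before compound.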

Sequence of human ether-à-go-go-related gene (hERG) potassium channel (Q12809 whole entry, looked up): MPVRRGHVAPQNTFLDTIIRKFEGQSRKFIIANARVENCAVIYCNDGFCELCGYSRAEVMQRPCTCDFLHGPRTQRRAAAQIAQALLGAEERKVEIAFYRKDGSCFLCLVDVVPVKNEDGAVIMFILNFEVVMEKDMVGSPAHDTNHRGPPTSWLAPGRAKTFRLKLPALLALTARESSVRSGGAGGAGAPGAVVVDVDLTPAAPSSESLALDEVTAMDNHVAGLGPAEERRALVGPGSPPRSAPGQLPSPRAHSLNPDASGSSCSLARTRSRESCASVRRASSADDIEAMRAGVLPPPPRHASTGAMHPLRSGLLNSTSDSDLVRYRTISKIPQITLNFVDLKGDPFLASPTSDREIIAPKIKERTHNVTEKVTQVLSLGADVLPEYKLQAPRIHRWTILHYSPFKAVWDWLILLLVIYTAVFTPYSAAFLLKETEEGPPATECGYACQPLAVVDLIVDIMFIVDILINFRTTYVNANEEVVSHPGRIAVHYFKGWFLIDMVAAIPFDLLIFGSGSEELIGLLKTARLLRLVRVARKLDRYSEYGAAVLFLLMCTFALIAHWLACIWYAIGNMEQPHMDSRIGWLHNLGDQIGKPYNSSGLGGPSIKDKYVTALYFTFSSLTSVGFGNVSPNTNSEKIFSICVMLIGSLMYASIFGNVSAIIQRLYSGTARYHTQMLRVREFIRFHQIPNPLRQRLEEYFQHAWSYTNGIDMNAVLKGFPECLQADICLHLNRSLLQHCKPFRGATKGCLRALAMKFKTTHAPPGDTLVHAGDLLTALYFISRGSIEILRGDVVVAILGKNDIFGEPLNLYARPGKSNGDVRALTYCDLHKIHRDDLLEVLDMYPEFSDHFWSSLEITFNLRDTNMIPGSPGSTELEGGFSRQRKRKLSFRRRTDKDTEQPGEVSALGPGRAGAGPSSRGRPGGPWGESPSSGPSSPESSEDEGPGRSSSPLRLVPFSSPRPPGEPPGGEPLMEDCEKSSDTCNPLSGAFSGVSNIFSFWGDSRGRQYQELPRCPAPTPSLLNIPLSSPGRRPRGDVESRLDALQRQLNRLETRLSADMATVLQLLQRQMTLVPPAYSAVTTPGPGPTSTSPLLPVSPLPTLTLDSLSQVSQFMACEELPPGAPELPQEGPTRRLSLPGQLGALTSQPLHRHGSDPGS

| SMILES | hERG current change (%, negative = inhibition) at 10uM [%] |
| --- | --- |
| COc1cccc(NC(=O)COC(=O)c2ccc(F)cc2F)c1 | -25 |
| CN(C)C(=O)c1ccc(COc2ccccc2Br)o1 | 4.49 |
| O=C1CC2(CCN(C(=O)c3ccccc3[N+](=O)[O-])CC2)Oc2ccccc21 | -62 |
| O=C(CSc1nc2ccccc2[nH]1)c1ccc2c(c1)OCO2 | -0.0917 |
| CC(c1cccs1)N(C(=O)Nc1ccccc1)C1CCCCC1 (stereo not shown) | -23.3 |
| COc1ccccc1Nc1nc2ccc(C)cc2cc1C#N | 10.9 |
| Cc1ccc(C(=O)Oc2cc(-c3ccccc3)no2)cc1 | 4.43 |
| CCN(CC)S(=O)(=O)c1cccc(C(=O)OCC(=O)N2CC(=O)Nc3ccccc32)c1 | -27.2 |
| Cc1nc(SCC(=O)Nc2c(C)n(C)n(-c3ccccc3)c2=O)n[nH]1 | 10.7 |
| CCCCCCOC(=O)C[N+](C)(C)CCOC1CC2CCC1(C)C2(C)C.[Cl-] (stereo not shown) | -78.1 |
| N#Cc1ccc(-c2ccccc2)nc1SCC(=O)c1cccc(Cl)c1 | 22.6 |
| CC1CN(CCOc2ccc(F)cc2)CC(C)O1.O=C(O)C(=O)O (stereo not shown) | 6.81 |
| Cc1nc(N)nc(SCc2ccc([N+](=O)[O-])cc2)c1N | -74.6 |
| CN(C(=O)c1ccc2c(c1)SC1=NS(=O)(=O)CCN12)C(c1ccccc1)c1ccccc1 | -61 |
| CC(=O)Nc1ccccc1NC(=O)c1ccc(C)c(C)c1 | 10.9 |
| COc1ccc(-c2cc([C@H]3[C@H]4C=CC[C@@H](C)[C@@H]4C(=O)N3Cc3ccccc3)ccc2F)cc1 | 24.3 |
| O=C1c2cccnc2C(=O)N1Cc1ccco1 | 6.6 |
| CSc1ncc(CN2CCCC(C(=O)c3sccc3C)C2)cn1 (stereo not shown) | -55.2 |
| COCCNC(=O)C(=O)N/N=C/c1ccccc1C(F)(F)F | 9.03 |
| OCC1(CO)COC2(CCCC2)N1 | 1.42 |
| Cn1c(=O)c2ccccc2n(CC(=O)NCCC2=CCCCC2)c1=O | 17.2 |
| CCOC(=O)N1CCc2c(sc3c2c(=O)n(Cc2ccccc2)c(=O)n3Cc2ccccc2F)C1 | 0.366 |

| SMILES | hERG current change (%, negative = inhibition) at 10uM [%] |
| --- | --- |
| C/C(=N\NC(=O)c1ccn(C)n1)c1cccc(NC(=O)c2ccncc2)c1 | -1.9 |
| Cc1ccc(-n2nc(C)c(C3(O)C(=O)N(C)c4ccccc43)c2N)cc1 (stereo not shown) | -49.9 |
| Cc1cccc(NC(=O)CN2CCN(C(=O)c3c(C)nn(Cc4ccccc4)c3C)CC2)c1C | -20.4 |
| O=C(c1ccc(N2CCCS2(=O)=O)cc1)N1CCN(c2ccc(F)cc2)CC1 | -28.9 |
| C=CCn1c(SCC(=O)Nc2nnc(CC)s2)nnc1-c1ccncc1 | 10.6 |
| CCCCCCCCCCOC(=O)Cn1c(COc2ccc(Cl)cc2)[n+](C)c2ccccc21.[Cl-] | -76.2 |
| COc1ccc(CC(=O)Nc2ccc(C)c(S(=O)(=O)N3CCCCCC3)c2)cc1 | -21.6 |
| O=c1[nH]c(=O)n([C@H]2C[C@H](O)[C@@H](CO)O2)cc1F | 16.7 |
| Cc1nc2sc(C(N)=O)c(N)c2c(C)c1CC(=O)c1ccccc1 | 0.983 |
| CC(=O)Nc1ccc(SCC(=O)Nc2ccc(Cl)cn2)cc1 | 19.5 |
| COc1ccc(C(C)=O)cc1COc1ncnc2ccccc12 | -1.57 |
| CCOc1cccc(CN2CCC(n3nccc3NC(=O)C3CC3)CC2)c1O | -64.2 |
| Cc1ccc(OCC(=O)N(C)CC(=O)Nc2ccc(F)c(F)c2F)cc1 | 2.13 |
| Cc1nc(NC(=O)c2ccccc2)sc1-c1csc(NCc2ccco2)n1 | -0.662 |
| COc1ccc(C(CNC(=O)c2ccc(NS(=O)(=O)c3ccc(F)cc3)cc2)N2CCOCC2)cc1 (stereo not shown) | 6.52 |
| Nc1ncnc2c1ncn2C1OC(C(=O)NC2CC2)C(O)C1O (stereo not shown) | 6.12 |
| Cc1ccc([N+](=O)[O-])cc1NC(=O)c1ccoc1C | 6.81 |
| COc1ccc(C(=O)NN=C2CCCC2)c(OC)c1 | 9.62 |
| Nc1cc(-c2ccc(OC(F)(F)F)cc2)nn1-c1ccc(Cl)c(Cl)c1 | 9.26 |
| O=S(=O)(c1ccc(Br)s1)N1CCC(Cc2ccccc2)CC1 | 4.76 |
| CCCCN(C)C(=O)CCCc1c[nH]c2ccccc12 | 3.23 |
| CCC(=O)N1CCc2cc(S(=O)(=O)NCCC(=O)N3CCc4ccccc4C3)ccc21 | -23.2 |

| SMILES | hERG current change (%, negative = inhibition) at 10uM [%] |
| --- | --- |
| O=C(CN1C(=O)NC2(CCCCC2)C1=O)NCc1ccc2c(c1)OCO2 | 18.9 |
| CCOc1ccc2[nH]c(=O)c(CN(Cc3ccco3)Cc3nnnn3Cc3ccccc3)cc2c1 | -20.6 |
| CCS(=O)(=O)Nc1ccc(C2=NN(C(=O)c3ccco3)C(c3cccs3)C2)cc1 (stereo not shown) | -1.38 |
| O=C(c1ccccc1)c1ccc(OCC(O)CN2CCOCC2)cc1 (stereo not shown) | -10.8 |
| Cc1cc(NC(=O)C2CCCCC2C(=O)O)no1 (stereo not shown) | 4.57 |
| CC(C)CNC(=O)COC(=O)c1c2c(nc3ccccc13)/C(=C/c1cccs1)CC2 | 6.36 |
| Cc1ccc(NC(=O)CN2C(=O)N/C(=C/c3ccc(C)s3)C2=O)cc1 | -5.54 |
| CC(C)C[C@@H](CN(N=O)[C@@H](Cc1ccccc1)CN(C)N=O)N(CCc1ccccc1)N=O.[Na+] | -11.2 |
| CCC(C)NCc1ccc(C(=O)OC)o1.Cl (stereo not shown) | 22 |
| N#Cc1ccc(NC(=O)CSc2n[nH]c(=O)n2C2CC2)cc1 | -1.4 |
| CCN(CC1CCCN(CCc2cccc(F)c2)C1)C(=O)c1ccc(CSC)o1 (stereo not shown) | -74.5 |
| Cc1ccc2cccc(NC(=S)NC(=O)c3ccn(C)n3)c2n1 | 6.66 |
| O=C(C[n+]1ccc2ccccc2c1)c1ccc(NC(=O)c2ccccc2)cc1.[Br-] | -0.135 |
| N/C(=N\OC(=O)c1ccc2c(c1)OCO2)c1ccc(Br)cc1 | 12.3 |
| CNc1ccccc1C(=O)OCC(=O)N(CCOC)c1c(N)n(CC(C)C)c(=O)[nH]c1=O | 9.81 |
| O=C1CCCN1C(=O)COc1ccc([N+](=O)[O-])cc1 | -12.9 |
| CCCC(C)NC(=O)c1ccc2[nH]c3c(c2c1)CC(C)CC3 (stereo not shown) | 8.9 |
| COC(=O)c1ccccc1NC(=O)COC(=O)C1CCCCC1 | 5.26 |
| O=C(O)CSCC(=O)NC1CCCc2ccccc21 (stereo not shown) | 25.5 |
| COc1ccc(C2CC(c3cccs3)=NN2c2ccc(F)cc2)cc1OC (stereo not shown) | 26.6 |
| CCOC(=O)c1ccc(N=C2SC(C(=O)Nc3ccc(C(=O)O)cc3)CC(=O)N2Cc2cccs2)cc1 (stereo not shown) | -1.48 |
| Cn1c(SCc2cccc(F)c2)nnc1-c1ccncc1 | 12.3 |

| SMILES | hERG current change (%, negative = inhibition) at 10uM [%] |
| --- | --- |
| Cc1cc(NC(=O)CN2CCCCC2C)no1.O=C(O)C(=O)O (stereo not shown) | -4.13 |
| CCOC(=O)C1CCCN(S(=O)(=O)c2cc3[nH]c(=O)c(=O)[nH]c3cc2C)C1 (stereo not shown) | 8.67 |
| O=c1[nH]c(-c2ccccc2)nn1-c1ccc(Br)cc1Br | 11.5 |
| Cc1ccc(Cl)cc1S(=O)(=O)N1CCC(C(=O)NC2CCN(Cc3ccccc3)CC2)CC1 | -71.5 |
| O=C(CCNS(=O)(=O)c1cccc2nonc12)NC1CCCc2ccccc21 (stereo not shown) | 3.83 |
| CCOc1ccc2nc(SCc3ccccc3C#N)sc2c1 | 7.77 |
| COCC(=O)N(Cc1cc2cc(OC)ccc2[nH]c1=O)c1ccc(C)cc1 | -11.9 |
| CSc1nc2ccc(NS(=O)(=O)c3cccc(Cl)c3Cl)cc2s1 | -6.36 |
| O=C(c1ccc(N2CCCCC2)c([N+](=O)[O-])c1)N1CCOCC1 | -22.6 |
| Cc1nn(CCC(=O)NNC(=S)Nc2ccc(F)cc2)c(C)c1[N+](=O)[O-] | 2.08 |
| Cc1c(NC(=O)C(C)N(c2ccccc2)S(C)(=O)=O)c(=O)n(-c2ccccc2)n1C (stereo not shown) | 18.7 |
| CC1CCN(c2nc3c(c(=O)[nH]c(=O)n3C)n2Cc2ccccc2)CC1 | 7.99 |
| CCCC(=O)Nc1c(C)n[nH]c1C | 5.36 |
| N#Cc1cnc(SCC(=O)N2CCCC2)nc1N | 13.1 |
| CCOC(=O)C1C(O)=CC(=O)CC1c1ccccc1 (stereo not shown) | 16.9 |
| Cc1ccc(NC(=O)C(=O)NCCCN2CCCC2=O)c(C)c1 | 5.82 |
| O=C(Nc1ccncc1)c1cccc(S(=O)(=O)N2CCCC2)c1 | -60.7 |
| Cl.O=C(O)CCc1nc2cc3ccccc3cc2[nH]1 | 23 |
| COCCN(CCOC)S(=O)(=O)c1ccc(Cl)nc1 | -9.7 |
| Cc1ccc(C(=O)NC2CCS(=O)(=O)C2)cc1S(=O)(=O)N1CCCCC1 (stereo not shown) | 1.42 |
| COC(=O)C1=C(c2cc3ccccc3s2)C[C@@H]2CC[C@H]1N2C(=O)N1CCC(O)CC1 | -7.57 |
| O=C1c2cccnc2C(Nc2ccc(S(=O)(=O)N3CCCCC3)cc2)N1Cc1ccccc1 (stereo not shown) | 12.1 |
